Test results reported in PubChem BioAssay AID588342 (National Center for Advancing Translational Sciences (NCATS), 2011).
“And” between values parts separate entries of the source, which are not always exact repeats. Equal values may be shown once. Hit rate of the full screen: of about 360,000 compounds, about 25,000 (6.9%) were called active. Inconclusive results, whose numbers are uncertain, are shown with a selection of clear calls. Calls follow the shape of the dose curve; as a rule, active = well fitted inhibition curve with a large enough effect; inconclusive = small, poorly fitted or top-dose-only effect; inactive = flat fitted curve, though single readings scatter. Potencies beside an inconclusive call are fits to weak or partial responses and may not hold up.

target: Luciferin 4-monooxygenase (Photinus pyralis) (UniProt P08659); assay: qHTS profiling assay for firefly luciferase inhibitor/activator using purifed enzyme and Km concentrations of substrates (counterscreen for miR-21 project); conditions: purified FLuc, luminescence inhibition; series mostly up to 57.5 µM; also: nearly all actives have a fitted effect of over 55% in size
How it was run: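 Purified P. pyralis luciferase (10nM final) with 10uM D-luciferin and 10uM ATP (Km levels) in 50mM Tris acetate pH 7.5, 10mM Mg acetate, 0.01% Tween-20, 0.05% BSA; qHTS 6-point titration, ~60 µM downward; luminescence read.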
Potency is read from the fitted curve at half-maximal effect; tags tell the direction and shape of the fitted curve.

UniProt P08659, sequence (P08659 whole entry, looked up): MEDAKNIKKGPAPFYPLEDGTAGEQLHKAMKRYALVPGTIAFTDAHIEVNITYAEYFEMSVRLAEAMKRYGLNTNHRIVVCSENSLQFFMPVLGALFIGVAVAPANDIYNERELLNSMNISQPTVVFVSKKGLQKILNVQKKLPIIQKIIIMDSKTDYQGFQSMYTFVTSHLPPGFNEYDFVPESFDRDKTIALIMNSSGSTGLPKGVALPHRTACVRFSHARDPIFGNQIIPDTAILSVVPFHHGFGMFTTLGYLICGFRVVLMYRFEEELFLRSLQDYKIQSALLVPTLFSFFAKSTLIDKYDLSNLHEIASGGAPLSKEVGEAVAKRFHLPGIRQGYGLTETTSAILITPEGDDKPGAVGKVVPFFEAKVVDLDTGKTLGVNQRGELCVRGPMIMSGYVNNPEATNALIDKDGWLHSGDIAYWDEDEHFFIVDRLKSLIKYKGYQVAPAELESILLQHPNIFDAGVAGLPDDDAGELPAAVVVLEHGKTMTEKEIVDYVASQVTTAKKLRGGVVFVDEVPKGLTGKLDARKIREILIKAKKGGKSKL

SMILES | Potency
CSc1ccc(/C=C(/NC(=O)c2ccco2)C(=O)N2CCOCC2)cc1 | inactive
CN(CC(=O)O/N=C(\N)c1ccccn1)S(=O)(=O)c1ccccc1 | inconclusive: 23.9 µM [inhibitor, partial curve, poor fit]
CCOc1cc(CNC(=O)CSc2n[nH]c(-c3ccccc3)n2)cc(OCC)c1OCC | inactive
O=C(OCC(=O)C12CC3CC(CC(C3)C1)C2)c1cccnc1 | inconclusive: 37.9 µM [inhibitor, partial curve, poor fit]
CCOc1ccc(NC(=O)Cn2ncc3ccccc32)cc1 | inconclusive: 16.9 µM [inhibitor, partial curve]
Cc1ccc(NC(=O)N/C=C/c2ccco2)c(C)c1 | inconclusive: 23.9 µM [inhibitor, partial curve, poor fit]
CC1CC(C)CN(CCCNC(=O)c2ccc3c(c2)N(Cc2ccccc2)C(=O)c2ccccc2S3=O)C1 (stereo unspecified) | inactive
Cc1nn(-c2ccccc2)c(Cl)c1/C=N/NC(=O)c1nn(C)cc1[N+](=O)[O-] | active: 10.7 µM
Cn1cccc1C(=O)/C(C#N)=C/c1ccc(F)cc1 | active: 6.75 µM
CCN1CCN(C(=O)c2c(-c3c(Cl)cccc3Cl)noc2C)CC1 | inactive
Cc1ccc(CNC(=O)CCCCCn2c(=O)c3sccc3n(CC(=O)C(C)(C)C)c2=O)cc1 | inconclusive: 37.9 µM [inhibitor, partial curve, poor fit]
Cc1ccc(SCC(=O)Nc2ccc(O)c(-c3nc4cc(C)ccc4o3)c2)cc1 | inconclusive: 21.3 µM [inhibitor, single point]
COC(CSc1ncnc2c1oc1nc3c(cc12)COC(C)(C)C3)OC | inconclusive: 26.9 µM [inhibitor, partial curve, poor fit]
Cn1cc(Cl)c(C(=O)Nc2cccc(Cl)c2Cl)n1 | inactive
COc1cc(OC)cc(C(=O)Nc2cc(NC(=O)c3ccco3)ccc2OC)c1 | inconclusive: 16.9 µM [inhibitor, partial curve]
Oc1cccc(/C=N/N2CCN(c3ccccn3)CC2)c1 | inconclusive: 26.9 µM [inhibitor, single point]
CC(C)Oc1ccc(CSc2ncn[nH]2)cc1 | active: 15.1 µM
CC1(C)CC(=O)c2sc(NC(=O)C3COc4ccccc4O3)nc2C1 (stereo unspecified) | inconclusive: 26.9 µM [inhibitor, partial curve]
CC(C)OC(=O)c1c2c(n3ccccc13)C(=O)c1ccccc1C2=O | inactive
COc1ccc(NC(=O)c2ccco2)cc1NC(=O)c1cccc(C)c1OC | inconclusive: 23.9 µM [inhibitor, partial curve]
COc1cccc(NC(=O)c2ccc3c(c2)OCCO3)c1 | active: 0.675 µM
CC(=O)c1csc(COc2ccccc2)n1 | inconclusive: 37.9 µM [inhibitor, partial curve, poor fit]
CCOC(=O)CN/C=C(\C#N)c1ccc(F)cc1 | inconclusive: 33.8 µM [inhibitor, single point]

SMILES | Potency
O=C(Cn1cnc2ccccc21)N/N=C/c1cccs1 | inconclusive: 21.3 µM [inhibitor, partial curve, poor fit]
CSc1ncc(Cl)c(C(=O)Nc2c(C(=O)c3ccc(C)cc3)oc3ccccc23)n1 | inactive
O=C(OCC(=O)c1ccc[nH]1)c1ccc(Br)cc1 | inconclusive: 15.1 µM [inhibitor, partial curve]
Cc1cccc(CSc2nnc(NC(=O)c3ccco3)s2)c1 | inconclusive: 37.9 µM [inhibitor, single point]
COc1cccc(-c2n[nH]c3c2CCC3)c1 | inconclusive: 37.9 µM [inhibitor, partial curve, poor fit]
O=C1c2ccccc2-c2onc3ccc(N4CCCC4)c1c23 | inconclusive: 26.9 µM [inhibitor, single point]
Cc1ccc(Cn2c(SCc3ccc(C(=O)O)cc3)nc3cccnc32)cc1 | active: 16.9 µM
Cc1ccccc1SCCNC(=O)CCc1ccccc1 | inconclusive: 26.9 µM [inhibitor, single point]
CCN(c1ccccc1)c1ncnc2c1cnn2-c1ccc(OC)cc1 | active: 6.75 µM
CCc1nc2cc(Cl)c(Cl)cc2nc1CC | inactive
CCN1CCN(Cc2ccc(NC(=O)c3cc(NC(=O)c4cc5cccc(OC)c5o4)cc(OC)c3)cc2C(F)(F)F)CC1 | inconclusive: 37.9 µM [inhibitor, single point]
O=S(=O)(NCCc1nnc2ccc(SCc3cccc(Cl)c3)nn12)c1ccccc1 | inactive
COc1ccc(OC)c(N2C(=O)C(Cl)=C(N3CCCCC3)C2=O)c1 | inconclusive: 26.9 µM [inhibitor, partial curve, poor fit]
Cc1cc(N2CCN(C)CC2)nc2ccc(NC(=O)Nc3ccc(F)cc3)cc12 | inconclusive: 9.53 µM [inhibitor, partial curve]
COc1ccc(CCNC(=O)c2ccc3nc(-c4ccco4)c(-c4ccco4)nc3c2)cc1OC | inconclusive: 21.3 µM [inhibitor, single point] and inconclusive: 30.1 µM [inhibitor, single point]
CC1=NNC(=O)C1CC(=O)N/N=C(\C)c1ccco1 (stereo unspecified) | inactive
CC(=O)Nc1ccc(S(=O)(=O)NNC(=O)c2cccc(Cl)c2)cc1 | inactive
Brc1ccc(-c2cn3cc(Cc4ccccc4)sc3n2)cc1 | active: 0.338 µM
CC1CCN(S(=O)(=O)c2ccc3[nH]ccc3c2)CC1 | inactive
COc1ccc(OC)c(Nc2nc(-c3ccc(O)c(O)c3)cs2)c1 | inconclusive: 23.9 µM [inhibitor, partial curve, poor fit]
CC(C)S(=O)(=O)C1=NSC2=NC(=O)/C(=C\c3ccc(-c4ccccc4)o3)C(=N)N21 | inconclusive: 19 µM [inhibitor, partial curve]
C=CCSc1nsc(NC(=O)Nc2ccc(F)cc2)n1 | active: 23.9 µM
CC(C)(C)C(=O)NC(=S)Nc1ccc(Cc2ccncc2)cc1 | inconclusive: 21.3 µM [inhibitor, single point]
